The list shows a part of the results.
T1: UNK ZnF1-3 (human, UniProt Q9C0B0 31-174)
T1 sequence: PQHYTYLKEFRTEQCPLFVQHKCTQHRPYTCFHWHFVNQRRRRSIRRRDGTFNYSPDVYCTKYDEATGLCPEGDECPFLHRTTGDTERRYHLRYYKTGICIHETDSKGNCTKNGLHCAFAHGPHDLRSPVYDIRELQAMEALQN

B1: chr6:114270206:114270207:-_ENSG00000196591_ENST00000368632|hu_hu|motif|central (ssRNA)
RNA: GGGAGUUCUACAGUCCGACGAUCUACAACUUCUACACAUUUAGCAUGACCUUUGACUGUUAGAUUGAAACAACCCAGUCGGUCACCAGAUAAUGAGUCUGCACCACACUGUAAUACCACAGCACUAGGUUGAUACAUCUCCAUCAACAGAGGAUUGAGCAUCA
B2: 27447925_27448045_1656_CDS_ENSG00000084774_ENST00000264705|human|control|control (ssRNA)
RNA: GGGAGUUCUACAGUCCGACGAUCAAAGGCCCGUCGAUCCUCGGUCAGCUCAAUGGUCUCCACUGGUGUGCCCAGGACCCGGACCCCAUACCGAGCCAGCACCCCGGCCUUGGUCAGCUCCACACCACAGUUCAGAGCAGUCUGCAACAGAGGAUUGAGCAUCA
B3: chr5:136386232:136386233:-_ENSMUSG00000051391_ENSMUST00000055808|mus_mus|motif|central (ssRNA)
RNA: GGGAGUUCUACAGUCCGACGAUCAAACUGAGAACCCAUGGCUUGGCGUCAUGUAUGGCUGUCAUGUAUAAAUACUGUAAACGGCAAUUGAGUGUUAAUACUGUCAACCCGUCAGAGACUUCCAAAUACAGGGCCACGUCUAACCAACAGAGGAUUGAGCAUCA
B4: 69154069_69154189_1013_3pUTR_ENSG00000144746_ENST00000273258|human|control|control (ssRNA)
RNA: GGGAGUUCUACAGUCCGACGAUCUGUCAUCUACUUUAACAGCCUUUUCAUUUACUCGUAUUGUCUUGAUACUUUACAAUGAUUUUUUUUUUCCUAUAAGAUAAUCGUAUUGUUGCUGUAAAAGCCGUAAUUCUUUUAUUUUUUCAACAGAGGAUUGAGCAUCA
B5: chr19:36949789:36949790:+_ENSMUSG00000024811_ENSMUST00000025729|mus_hu|FALSE|FALSE (ssRNA)
RNA: GGGAGUUCUACAGUCCGACGAUCAUGUAAAGGAAUAAGUCCUCCUUUGUCUUGGGCAUUCACAUCAGCUCCGUGUUGUAACAAAUACUCUGCAACUUCUAAAUUAUUAUAACCAGCUGCUAAAUGUAAAGGUGUUGAAUGUCUCAACAGAGGAUUGAGCAUCA
B6: chr1:201932794:201932795:+_ENSG00000134375_ENST00000367287|hu_mus|FALSE|FALSE (ssRNA)
RNA: GGGAGUUCUACAGUCCGACGAUCAAGGCACCGCUAGUGAUGGAGUUCCAGGGGUCUUCUUUGCCUCGUAUUUGAACCAUACUGCAGUCAAUCGUGGAAAACAGUCCUCCCCAAACUGCAAAGCUACCUCCCAACUGUGGAGCCCAACAGAGGAUUGAGCAUCA
B7: chr6:38652254:38652255:-_ENSG00000124767_ENST00000373365|hu_hu|hu_hu_hu_mus_False|58_108 (ssRNA)
RNA: GGGAGUUCUACAGUCCGACGAUCCGAAAACUUCAUAGCAGGGAAGUCAAGCUUCUGCAGGAGGGUCAGUCCAAGAACUCUAGUAUAAAAAUCCAGGGACUUCUUAGGAUCCUUAAUUCUUAGCAUCGUUUGCUGCAGUAGAAACAACAGAGGAUUGAGCAUCA
B8: chr4:136892031:136892032:-_ENSMUSG00000006699_ENSMUST00000030417|mus_hu|FALSE|FALSE (ssRNA)
RNA: GGGAGUUCUACAGUCCGACGAUCCACACUUAAUUGUCUGCAUUGCUGAAAUAGUUUUGUAUCCACUUUAAAUAUUUCAAAUCUGAUGAUGACCUCAGCUUCUCCACCGGGGCGUUGGCAGCACUGCGCGGGGUCUCCUCGGCUCAACAGAGGAUUGAGCAUCA
B9: chr7:7679991:7679992:-_ENSG00000106399_ENST00000396682|hu_hu|hu_hu_hu_mus_False|1_38 (ssRNA)
RNA: GGGAGUUCUACAGUCCGACGAUCUGGGAUGAAUCUUUUCCAGCUUCCCCACGAAGCACACGGGCCGGUCGAUAUACUGUGGUAACAUGCUGGCGUUGAUGCGCGACUUGGGGAGCUGCAUUAUGUCCUCCAUGAUUAUGGUCCCAACAGAGGAUUGAGCAUCA
B10: chr11:20626769:20626770:-_ENSMUSG00000049659_ENSMUST00000146722|mus_hu|FALSE|FALSE (ssRNA)
RNA: GGGAGUUCUACAGUCCGACGAUCAACACAAACCUGAUCCUCUCCAUCAGUGUCUCCUUUGUUAUCCAAGCUUCUACCCAAAGCCACUUCUUUUACAGAAUUCAGUUCAUUGACUCUAUUAAUUUUAUUGUUUUCCCGAAUGGUCAACAGAGGAUUGAGCAUCA
B11: chr2:49626764:49626765:+_ENSMUSG00000026764_ENSMUST00000028102|mus_mus|motif|central (ssRNA)
RNA: GGGAGUUCUACAGUCCGACGAUCCAAGCACGUAUCUGUGCACACAAAUUCUACACAGCGCAAACACCUGAAUCUGGUGUACGGCAGACGGCUGGGCAAGCAAGUGUAAAAAGAAACGGAAACUGUAUAGGAGGGGACAGAAAGCAACAGAGGAUUGAGCAUCA
B12: chr3:196311160:196311161:+_ENSG00000174013_ENST00000440469|hu_mus|FALSE|FALSE (ssRNA)
RNA: GGGAGUUCUACAGUCCGACGAUCACUCUUCUUCUUUCCAGAAAGUCACUGUCAUCCAUCCAGAGGUUUUCCAAGAUAAACCAAAGUCACUUCUGUGUUGCCAUAUACUGCAGAGACAGCUGGGUAUAAGCAGGCUUUUGGAAGCAACAGAGGAUUGAGCAUCA
B13: chr17:49118984:49118985:-_ENSG00000008294_ENST00000510283|hu_hu|motif|central (ssRNA)
RNA: GGGAGUUCUACAGUCCGACGAUCUCCUUUCUGAGCAUCAGGUGUAAGCAAUCCAUCUCCAGCAGGUAAUGGGAAAAUUCCGGAUGAUAUAGGGCGUUCUUUUCUGAGUAUCCUUGGUAGGUUCUGCGUCAGAGCUGGCACACCCAACAGAGGAUUGAGCAUCA
B14: chr17:73267850:73267851:+_ENSMUSG00000024063_ENSMUST00000024857|mus_hu|FALSE|FALSE (ssRNA)
RNA: GGGAGUUCUACAGUCCGACGAUCGGGAAAUAUAUAGACAUGAAGUCCUAGGGCAGGCUGACACACGCCCCUGUGAUUUAAAAACGGUCCCUGCGUCCCGAGUGAGGAUGACACGGGCGCAGACGGGCACGGCAGGCGGCCGAGCAACAGAGGAUUGAGCAUCA
B15: 131922701_131927820_1994_CDS_ENSMUSG00000029673_ENSMUST00000160071|mouse|control|control (ssRNA)
RNA: GGGAGUUCUACAGUCCGACGAUCGUUACUGUGAUGAGGUGGUGGCCCAAAAGGGGUCCCAGUAGGAUGUGCAGCACCAGCGGCAGAGAAUAAAGUGGAAGGUCGUGCCAGAUCGUGGGGGUGAUGGAUGGCUCCGAAGAGACUCAACAGAGGAUUGAGCAUCA
B16: chr1:150923288:150923289:+_ENSG00000143379_ENST00000271640|hu_mus|FALSE|FALSE (ssRNA)
RNA: GGGAGUUCUACAGUCCGACGAUCCAAACAGAACAUCUCCAGGAACAGAAAGUCACAGCCAGUCUCAAAAAGGUAGCGCUCUAUCUCCUGCAUCGUCCGAAGGCAGAGACCACAGGGUGUCUUAUAGAUUACAUGAAAGCCCAUCAACAGAGGAUUGAGCAUCA
B17: chr1:25124269:25124270:+_ENSG00000169504_ENST00000374379|hu_hu|FALSE|FALSE (ssRNA)
RNA: GGGAGUUCUACAGUCCGACGAUCUACAACUCCUUUGAGCCAAAGAAUCAUGAAGAGCCUCUGGGAAAAGGGGCAGUUUCCUAUGCUUUCACCAUCACUGCCAGCCUUGACGAAGAGCUCGAUGAGGGGCUCUUUGUCCUCCUCCAACAGAGGAUUGAGCAUCA
B18: 191300769_191300889_209_3pUTR_ENSG00000151690_ENST00000281416|human|control|control (ssRNA)
RNA: GGGAGUUCUACAGUCCGACGAUCUCUGUGGAGGAAGGUGUUUCAUUCGAAGGUGGUUCUGGUUCCCUGGAAAUACCAUUAAAGGGAUCUGCAAGCACAUACUUUCUCUUCUGUUCCUCUUCAUCAUCCGUUAAGAUAGCAACUCAACAGAGGAUUGAGCAUCA
B19: chr16:94651144:94651145:+_ENSMUSG00000040785_ENSMUST00000117648|mus_hu|mus_mus_mus_hu_True|58_58 (ssRNA)
RNA: GGGAGUUCUACAGUCCGACGAUCAUUUUCUUGAAUCAAGUGGCGAAUAACAUAGUCCACUGCUUCAUUUAGAAAAUUUUUGCUAGAAAAACAGGUUGUAUAGUCUUCUGUGCUCAAAACUUUCCAAGAAAGCAAUUCUUUGAGCAACAGAGGAUUGAGCAUCA
B20: chr3:45748292:45748293:+_ENSG00000211456_ENST00000389061|hu_mus|FALSE|FALSE (ssRNA)
RNA: GGGAGUUCUACAGUCCGACGAUCGGCUCUCCAGACCGCAUGAUUAAAACAUUCACCUACUUUCAUCUUUUUGGUGAUGACAACAAGAUAAUUACCUGCCACCAGAUGGAUUGUGCCCAGUAUCCCAAAUAUUGGUCUUGUAACCAACAGAGGAUUGAGCAUCA
B21: 36449382_36449502_1153_CDS_ENSG00000112078_ENST00000373731|human|control|control (ssRNA)
RNA: GGGAGUUCUACAGUCCGACGAUCGUCUUCAUCCCAGUCCACAGAAUCCUCAUCCGUCAGCACAACAAUGUGGCACUCUCGUUCUCCUUUCUUGGCACAGCCCACCAUGAUGGGCAAGAUGAGCUCUUCGAGGUAGUGAUCAAACAACAGAGGAUUGAGCAUCA
B22: chr3:148802587:148802588:-_ENSG00000071794_ENST00000310053|hu_mus|hu_hu_hu_mus_False|68_108 (ssRNA)
RNA: GGGAGUUCUACAGUCCGACGAUCUCCAACCACAUGACCUCUCAUAGUUCCAAAUAAAACCAAAUCUACUUCUUCAUCACUCGUUAGGAAGUCAUCUGGAGGAAUAAUGUCUUGGAAUUCAAAAUGUGGCAAGAAAGUUGAGUACAACAGAGGAUUGAGCAUCA

molecular target: T1, UNK ZnF1-3; test: nsRBNS (natural sequence RNA bind-n-seq); RBNS binding buffer (assumed for nsRBNS): 25 mM Tris pH 7.5, 150 mM KCl, 3 mM MgCl2, 0.01% Triton X-100, 500 ug/ml BSA, 20 U/ml SUPERase-In, 4 C; UNK is unkempt and MSI1 is Musashi-1; names of the RNAs are library labels; protein concentration not given here; high values mean tight binding

Binder | binding signal
B1 | 0.904 enrichment R
B2 | 0.81 enrichment R
B3 | 1.29 enrichment R
B4 | 0.328 enrichment R
B5 | 0.786 enrichment R
B6 | 1.51 enrichment R
B7 | 1.07 enrichment R
B8 | 0.999 enrichment R
B9 | 0.374 enrichment R
B10 | 1.08 enrichment R
B11 | 1.56 enrichment R
B12 | 1.13 enrichment R
B13 | 1.54 enrichment R
B14 | 1.24 enrichment R
B15 | 1.73 enrichment R
B16 | 1.49 enrichment R
B17 | 0.979 enrichment R
B18 | 0.863 enrichment R
B19 | 0.394 enrichment R
B20 | 1.61 enrichment R
B21 | 0.881 enrichment R
B22 | 1.17 enrichment R

— PMC12136788
